Test results from PubChem BioAssay AID651820 (National Center for Advancing Translational Sciences (NCATS), 2012).
In all, about 340,000 compounds went through this assay and about 12,000 (3.5%) were called active. The inconclusive results got no clear call from the source; some entries with a clear call stand among them for comparison. The call rests on the fitted dose curve; in most records, active means well fitted inhibition curve with a large enough effect; inconclusive means small, poorly fitted or top-dose-only effect, or another doubt; inactive means no such curve, though single readings can be large or run the other way. No potency is given beside an inconclusive call; the fits are too rough.

Assay: qHTS Assay for Inhibitors of Hepatitis C Virus (HCV)
Settings: Huh7.5.1 HCVcc-Cre (HCVcc is cell-culture hepatitis C virus) infection, luciferase reporter, 44 h; activity change, negative = inhibition: at 41.8 µM (top of the series) unless noted
Method in brief: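 Antiviral activity was scored by luciferase reporter output from cells infected with HCVcc-Cre (~0.5 moi) in presence of compound, 44 h infection period, cells seeded 1,000/well 4 h prior.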
On the % scale 0 is the no-effect control and ±100 the full control effect; potency means the concentration at half of the fitted maximal effect; tags describe the fitted curve by direction and shape.

SMILES | activity change, negative = inhibition | Potency
COc1ccc(CNC(=O)[C@H](CCSC)NC(=O)N2CCn3c2nc2ccccc23)cc1 | inactive: -1.48% | –
COc1ccccc1OCC(=O)Nc1ccc(S(=O)(=O)N2CCCC2)cc1 | inactive: -13.7% | –
O=C(c1cccc(C(=O)N2CCN(c3ccccc3)CC2)c1)N1CCN(c2ccccc2)CC1 | – | inconclusive [inhibitor, partial curve]
Cc1cc(C)c2sc(N(CCCN(C)C)C(=O)c3ccc(S(=O)(=O)N(C)Cc4ccccc4)cc3)nc2c1 | – | inconclusive [inhibitor, partial curve]
C[n+]1c(-c2ccccc2)cc(-c2ccc(Cl)cc2)cc1-c1ccccc1 | inactive: -19.7% | –
COc1ccc(-c2noc(COC(=O)c3ccco3)n2)cc1OC | inactive: 0.487% | –
CCCCCCCSc1nnc(N)s1 | inconclusive: -38.7% [inhibitor] | –
CCOc1nc(-c2ccccc2O)nc2ccccc12 | – | inconclusive [inhibitor, full curve]
Cn1c(N)c(S(=O)(=O)NCc2ccccc2Cl)c(=O)n(C)c1=O | – | inconclusive [inhibitor, partial curve]
CC(C)Oc1nc(-c2ccc(Cl)cc2)nc2ccccc12 | inactive: -9.76% | –
Cc1sc2nc(CSCC(=O)N(CCC#N)c3ccccc3)[nH]c(=O)c2c1C | inactive: -13.8% | –
CCOC(=O)c1cc(-c2ccccc2)sc1NC(=O)COC(=O)c1ccc(Cl)c(S(N)(=O)=O)c1 | – | inconclusive [inhibitor, partial curve, poor fit]
CCN(CCCNC(=O)c1cc2c(-c3cccc(OC)c3)nn(C)c2s1)Cc1ccccc1 | – | active: 11.2 µM
CCOC(=O)N1CCN(C(=O)CN(c2ccc(OC)cc2)S(C)(=O)=O)CC1 | – | inconclusive [inhibitor, single point]
COc1ccc([C@H]2CC(=O)C=C(c3ccc(-c4ccccc4)c(F)c3)C2)cc1 | inactive: 0.304% | –
CC(OC(=O)c1ccc(NC(=O)CC#N)cc1)C(=O)Nc1nc(-c2ccccc2)cs1 (stereo not drawn) | – | inconclusive [inhibitor, single point]
CCCCN(C)C(=O)c1nc2ccccn2c1CN1CCN(C/C=C/c2ccccc2)CC1 | – | inconclusive [inhibitor, single point]
COc1ccc(C2CC(c3ccccc3)Nc3nc(NC(=O)c4ccco4)nn32)cc1 (stereo not drawn) | inactive: -4.57% | –
CC(C)(C)N(Cc1ccc2c(c1)OCO2)C(=O)/C=C\S(=O)c1ccccc1 (stereo not drawn) | – | active: 11.2 µM
Cc1cccc(C)c1NC(=O)N1CC=C(n2c(=O)[nH]c3ccccc32)CC1 | – | inconclusive [inhibitor, single point]
COc1ccc(Cl)cc1NC(=O)CSc1nnc(Cc2cccn2C)n1-c1ccc(F)cc1 | – | inconclusive [inhibitor, full curve, poor fit]
Cc1ccc2[nH]c(=O)cc(C(=O)OCC(=O)c3ccc(F)cc3)c2c1 | – | inconclusive [inhibitor, single point]

SMILES | activity change, negative = inhibition | Potency
Cn1c(=O)c2c(nc(SCc3cccnc3)n2Cc2ccc(F)cc2)n(C)c1=O | – | inconclusive [inhibitor, partial curve]
CNC(=O)NC(=O)COC(=O)c1cccc(S(=O)(=O)N2CC3(C)CC2CC(C)(C)C3)c1 (stereo not drawn) | – | inconclusive [inhibitor, partial curve]
CCOC(=O)N1CCC(NC(=O)CN2C(=O)CCSc3ccccc32)CC1 | – | inconclusive [inhibitor, single point]
COc1ccc(Cl)cc1NC(=O)C(C)N(C)Cc1ccc(C(F)(F)F)cc1 (stereo not drawn) | – | active: 14.1 µM
COC(=O)NCc1cc2cc(Cl)ccc2[nH]1 | – | inconclusive [inhibitor, single point]
NC(=O)C1CCN(C(=O)CCSc2ccccc2)CC1 | – | inconclusive [inhibitor, single point]
COc1ccc(-c2nc(C#N)c(NCCc3ccccc3)o2)cc1OC | – | inconclusive [inhibitor, full curve]
Cn1cccc1-c1cc(C(=O)N/N=C/C=C/c2ccccc2)[nH]n1 | – | inconclusive [inhibitor, single point]
COc1ccc(Nc2ncnc3ccc(C)cc23)cc1 | inactive: -6.24% | –
CCCCNc1cc(NC(C)=O)cc2cc(OC)c(OC)cc12 | – | inconclusive [inhibitor, partial curve]
O=C(/C=C/c1cn(-c2ccccc2)nc1-c1cccc(Cl)c1)N1CCN(c2ccccn2)CC1 | – | inconclusive [inhibitor, single point]
Cc1cc(N2CCCCC2)nc2ccc(NC(=O)CCC(=O)NCCC(C)C)cc12 | – | inconclusive [inhibitor, partial curve]
O=C(N=Nc1c(O)n(Cc2ccccc2)c2ccccc12)c1cc2ccccc2cc1O | – | inconclusive [inhibitor, partial curve, poor fit]
Cc1cc(C([O-])=C(C(=S)Nc2ccccc2)[n+]2ccccc2)c(C)n1-c1ccccc1 | – | inconclusive [inhibitor, single point]
CCCc1cc(=O)oc2cc(OC(=O)CN3C(=O)NC4(CCCC4)C3=O)ccc12 | – | inconclusive [inhibitor, partial curve]
CCCCNC(=O)CSc1nc2ccc(N3CCOCC3)cc2c(=O)n1Cc1ccc(OC)cc1 | – | inconclusive [inhibitor, partial curve]
COc1ccc(S(=O)(=O)N2CCCC2CNC(=O)C(=O)Nc2cccc(F)c2)cc1 (stereo not drawn) | – | inconclusive [inhibitor, single point]
CCN(CC)S(=O)(=O)c1ccc2c(c1)nc(SCn1nnc3ccccc3c1=O)n2CC | – | inconclusive [inhibitor, partial curve]
Cc1ccc(C2=NN=C(NC(=O)CSc3nc(C)cc(C)n3)SC2)cc1 | – | inconclusive [inhibitor, single point]
CC(NCc1ccc(Cl)c(Cl)c1)C(O)c1ccccc1 (stereo not drawn) | inactive: 19.6% | –
O=C(Cc1ccccc1)Nc1cccc(N2C(=O)C=CC2=O)c1 | – | inconclusive [inhibitor, single point]
